Assay results reported in the supplement of paper PMC10126150.
Values marked as one replicate rest on one cluster of the flow cell; about a third of the high ones do not repeat.

System: ATP
Assay: switch fluorescence ratio, 500 uM ATP over buffer (Cy3 cluster intensity, sum of 5 cycles each) (fold (ratio)); higher = stronger signal-on switching upon ATP binding; sequences stand for … in TCGTCGGCAGCGTCAGATGTGTATAAGAGACAGTTTTTTTTTTTTTTTTTTTTTTTTT…TC
Conditions: aptamer strand: ATP DNA aptamer (quencher-CACCTGGGGGAGTATTGCGGAGGAAGG + anchor), 100 nM annealed; ATP concentration: 500 uM; one replicate
Outline: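 The quencher-labelled ATP aptamer, at 100 nM, was annealed to Cy3-labelled switching-strand clusters on a modified Illumina MiSeq flow-cell. The clusters were imaged in selection buffer, then after 15 min with 500 uM ATP at 22 °C, and this buffer/ATP cycle ran five times with NaOH stripping and re-annealing between runs. Per-cluster fluorescence ratios, summed target-cycle over summed buffer-cycle Cy3 intensity, were averaged per switch-domain sequence. Clusters outside 100-1000 RFU were excluded.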
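Note: ATP exposure 15 min at 22 °C before imaging.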

Row | Sequence | switch fluorescence ratio
1 | ATTTACCACA | 1.08
2 | TAAGTCCTAG | 1.03
3 | AGACCCGAAA | 1.04
4 | GGTCGCCCTA | 0.974
5 | CAGTACGCGC | 1.18
6 | CATGATATTA | 1.02
7 | CCATAAATGA | 1.03
8 | CCAAAGCGTA | 1.44
9 | CGAGGGATAA | 1.29
10 | ATTATTCTAA | 0.993
11 | TCGCAGCACT | 3.73
12 | AGGGATTTAC | 1
13 | AAAGTAGTTC | 0.964
14 | AACAACCGGC | 1.05
15 | CCGCCTACAC | 3.56
16 | CGACCTTATT | 1.02
17 | TGTGAGGATA | 0.995
18 | TTCATTGCGC | 1.04
19 | ACTTGAATGG | 0.997
20 | CCGTCGAGGG | 1.03
21 | CTCCTTAAGG | 1.03
22 | AATTTCTCCG | 1.79
23 | TGAGTCTTCT | 0.963
24 | CCTGATGCGC | 1.25
25 | TGAATAAGTT | 1.02
26 | ATGCTTGTCA | 0.976

Row | Sequence | switch fluorescence ratio
27 | TCCTTTGGGA | 1.02
28 | ATAAATCACG | 1.13
29 | TAGAGTACCC | 1.01
30 | GGGATCGTAG | 0.998
31 | AGGCAGTGCC | 0.975
32 | TCCCGTCCCT | 0.996
33 | TCAGATCGGT | 0.987
34 | GCCTCGGCCT | 0.993
35 | GATTGGCGGC | 0.982
36 | GTCGATCG | 0.978
37 | ATGAATTAAT | 0.968
38 | TCTGAGAGGT | 1
39 | CAGAAAATTA | 1.15
40 | GCACGGCGCA | 0.995
41 | ACTGGGCTAT | 1.04
42 | GATGAAAAGG | 0.994
43 | GCGCCACGTT | 0.965
44 | ACGAGGATAT | 1.03
45 | GATCGGGCAC | 1.01
46 | TGAACCTCGG | 0.992
47 | TGAGAGCCAA | 1.01
48 | CAAAGTCGGT | 0.966
49 | CCCACTACCA | 1.18
50 | TTAATTGGCT | 0.947
51 | TTTTGAAGAA | 1.05
52 | TCTAGTATTT | 0.972

Row | Sequence | switch fluorescence ratio
53 | GCAAGAGCAC | 1.03
54 | TAAGACTGCT | 0.994
55 | GATTGTAAGC | 0.989
56 | TGCGGGATT | 1.01
57 | TGCCGGAAAG | 1.01
58 | AGTTTAGCCC | 0.975
59 | CCTTTATTGG | 0.97
60 | CATACTTACC | 1.12
61 | ACAGTTTTTA | 1
62 | TTAAGGAAGG | 0.996
63 | TTGATGGCCC | 0.95
64 | AGATACCATG | 1.01
65 | GGGGACGCAC | 1.66
66 | TGGGTTACAA | 0.958
67 | CGTGACTCG | 0.955
68 | CCGGTCCACC | 1.05
69 | CTCGCAAC | 2.03
70 | GGTGAGAC | 1.02
71 | TCCCAAGCGG | 1.05
72 | TAAGCACGCC | 1.17
73 | GCGGCGGGAA | 1.02
74 | TAAAGGCCGG | 0.988
75 | TGAAACTCCG | 1.14
76 | CTAAGTTTCA | 0.951
77 | CTATGCTATC | 1.74
78 | GTGTATGGTT | 0.995

Row | Sequence | switch fluorescence ratio
79 | CATACTCCTC | 1.5
80 | CGGCGGCAGT | 1.09
81 | ATGCCCGGGT | 1.02
82 | AACGCCGGT | 0.999
83 | AACAAGAGAG | 1.04
84 | CGGTGTTCCC | 0.995
85 | CAGACGCATA | 4.26
86 | AAAGCCTCGC | 0.996
87 | ATGGTGGAGC | 1.02
88 | GAAAAGTTG | 1.16
89 | TGATGTAATT | 1.01
90 | ACATAGGAAA | 0.998
91 | ACATTTAGTT | 1
92 | ACTACATGGT | 1.02
93 | GCTGCAGTAA | 0.996
94 | GGCGACATAC | 1.52
95 | CTCTATTACT | 1.09
96 | ACCAGGGAAT | 1.03
97 | CGGTCCACAT | 1.02
98 | ACAGACAACT | 1.14
99 | GTTTACGTTA | 1.19
100 | CCGGGACTTC | 1.16
101 | CCAGAGTCGG | 1.1
102 | GGGGCAACTG | 1.04
103 | GGGGAACAT | 1.01
104 | CAGTCCCTGC | 1.08

Row | Sequence | switch fluorescence ratio
105 | ATTGGTAGAC | 1
106 | TTCTTGTTGC | 1
107 | ATGACTCTGT | 1
108 | TACCATGCGT | 1.03
109 | TTTGTGCTAC | 1.45
110 | TAGTCCAAA | 0.981
111 | CCCAGTCCTC | 1.1
112 | CTCGTTTACT | 1.07
113 | GTCGTTGTAT | 1.01
114 | CGCGTTTGGC | 1.07
115 | TTGTCACGGA | 1
116 | GTAGAGG | 1.03
117 | GACAGAGACT | 1.01
118 | CCGGTATTCT | 1.11
119 | AGAAAGTTCC | 1.21
120 | GCGTTACTCG | 1.11
121 | CTGTCCAACC | 1.08
122 | GCCCGAGACT | 1.01
123 | GACAGGGA | 0.982
124 | GTTACCGGTA | 1.02
125 | CCTTATTGCT | 0.988
126 | TTCGAGTTAG | 1.01
127 | GGGCACTCTG | 0.986
128 | GGGAACTGAA | 1.23
129 | GCAAAAGCAC | 1.18
130 | CTCAAATGTG | 1.02

Row | Sequence | switch fluorescence ratio
131 | TACTTCGTGT | 1.05
132 | AAATGGCAAA | 0.959
133 | CCCGGAGTGG | 1.05
134 | TCTAGCCCAT | 0.991
135 | GGGGTGCGCA | 0.803
136 | AGGTAGGTT | 0.989
137 | GCGGTACGGA | 1.03
138 | CGGTCTGACG | 1.1
139 | CGAGCGGCGG | 0.918
140 | TTCAACACGG | 1.05
141 | ATAGGCCAAT | 0.996
142 | AAGACATGAA | 1
143 | TCCTATGCCT | 1.02
144 | GGGGTATTCC | 0.996
145 | CCCCAACCAT | 1
146 | AGCACTGAAT | 1.05
147 | TTTTTCGCGC | 1.08
148 | TTTAAGAACC | 1.01
149 | TAACGACCCG | 1.06
150 | CTCCATGACC | 1.18
151 | GTTTTAGTCT | 0.961
152 | CGCCGTACCA | 1.05
153 | GCACTGTATT | 1.13
154 | CAAAAAACTT | 1.06
155 | TAGCATGCTT | 1.03
156 | AGGGCTGGCC | 1.02

Row | Sequence | switch fluorescence ratio
157 | GGTACGATGT | 1
158 | CAGTTCCCCT | 1.03
159 | CCTGTATTTC | 0.994
160 | ATTTCCCTAT | 0.998
161 | GAGGAGCTTA | 1.01
162 | CCGATCTGAA | 1.07
163 | TGCTCCAGTA | 1.06
164 | AGTGGATATG | 0.988
165 | CCTATTTGCA | 1.14
166 | CTCCCTCGTC | 1.17
167 | TGCTTCGGTT | 1.06
168 | CTGCGCGGCT | 1.25
169 | TAACTGAAT | 1.06
170 | TTGCAATGTT | 1.08
171 | CAATCAGGGT | 1
172 | CAAATTGGG | 1.01
173 | TGGATATTGC | 1.03
174 | TCTAATTGTA | 0.94
175 | CTGAGACCTC | 1.01
176 | CGAAAAGCGA | 1.03
177 | GACGATTTTG | 0.96
178 | GATCTTCGTA | 0.973
179 | CGTCCCGCCG | 1.05
180 | TGCCGCCGTG | 0.968
181 | CCCAGACTAC | 1.55
182 | TGGTGCTCAG | 0.995

Row | Sequence | switch fluorescence ratio
183 | TTCATTATAT | 1.03
184 | GGATACTTTC | 0.993
185 | TGTGCAGGTG | 3.16
186 | GGGCTTTAGG | 1.07
187 | AAGAGCAGGA | 0.995
188 | GTCTTAGTCA | 0.967
189 | CGATCTTCAA | 1.02
190 | GTCTAGTTTC | 0.996
191 | GATCTCACAT | 0.995
192 | CAATAAGGTG | 1.42
193 | ATAGTAAGAA | 0.996
194 | GTGCATGACC | 1.05
195 | CCGTGTCCCG | 1.04
196 | GAAGTTCGTT | 1.01
197 | TATTGAGA | 1.05
198 | ACGTTTGAGC | 1.06
199 | CAAATTGGCC | 1.03
200 | AATGGGTCGA | 1
201 | GGATCCTGTA | 0.997
